Assay results: publication PMC4336329 (PLoS ONE, 2015)
About 14,000 (4.5%) of roughly 310,000 compounds showed an effect of 50% or more. The effect is printed as a negative number. The list shows a part of the results.

The compounds below were run against human ether-à-go-go-related gene (hERG) potassium channel (human, UniProt Q12809) (assay: primary screen, population patch clamp on CHO cells stably expressing hERG).
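Further: peak tail current of the secondary pulse compared with the same well before compound.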

Chain of human ether-à-go-go-related gene (hERG) potassium channel (Q12809 whole entry, looked up): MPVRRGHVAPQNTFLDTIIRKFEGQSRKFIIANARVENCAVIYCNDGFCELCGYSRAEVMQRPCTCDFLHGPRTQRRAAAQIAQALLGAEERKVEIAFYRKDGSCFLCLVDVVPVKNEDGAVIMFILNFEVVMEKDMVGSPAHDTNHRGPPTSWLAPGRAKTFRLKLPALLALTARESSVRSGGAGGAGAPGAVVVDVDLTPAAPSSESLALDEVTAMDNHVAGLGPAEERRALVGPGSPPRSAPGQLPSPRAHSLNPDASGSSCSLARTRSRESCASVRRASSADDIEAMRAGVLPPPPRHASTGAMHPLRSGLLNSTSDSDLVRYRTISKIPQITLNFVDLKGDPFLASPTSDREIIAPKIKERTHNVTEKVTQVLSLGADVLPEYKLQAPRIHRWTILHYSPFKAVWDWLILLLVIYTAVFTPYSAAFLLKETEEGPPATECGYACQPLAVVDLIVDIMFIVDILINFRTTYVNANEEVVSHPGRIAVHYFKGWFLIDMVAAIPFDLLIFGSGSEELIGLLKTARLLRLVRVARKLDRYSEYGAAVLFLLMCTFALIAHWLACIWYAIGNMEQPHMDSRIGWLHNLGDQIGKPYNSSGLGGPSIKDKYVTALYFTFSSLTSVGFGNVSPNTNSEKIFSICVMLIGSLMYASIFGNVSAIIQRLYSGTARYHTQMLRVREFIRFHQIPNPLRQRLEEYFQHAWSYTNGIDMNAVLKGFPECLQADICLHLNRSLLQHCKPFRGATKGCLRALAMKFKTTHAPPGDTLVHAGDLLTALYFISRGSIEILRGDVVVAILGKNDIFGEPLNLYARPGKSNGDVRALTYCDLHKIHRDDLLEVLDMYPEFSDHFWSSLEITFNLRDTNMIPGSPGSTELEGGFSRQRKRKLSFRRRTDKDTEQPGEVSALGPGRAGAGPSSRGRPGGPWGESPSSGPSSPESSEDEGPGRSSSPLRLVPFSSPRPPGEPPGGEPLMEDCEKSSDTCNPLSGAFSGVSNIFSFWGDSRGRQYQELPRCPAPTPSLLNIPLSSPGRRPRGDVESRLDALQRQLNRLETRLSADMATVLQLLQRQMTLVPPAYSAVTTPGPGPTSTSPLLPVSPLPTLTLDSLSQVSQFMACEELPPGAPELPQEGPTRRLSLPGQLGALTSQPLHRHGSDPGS

SMILES | hERG current change (%, negative = inhibition) at 10uM
COc1ccc(CNc2oc(COc3ccccc3)nc2C#N)cc1 | -7.81%
Cc1cccc2c1N(CCCOc1ccccc1)C(=O)C2=O | -1.77%
Cc1cc(C)c2nc(-c3cccnc3)cc(C(=O)NC(C)c3cnn(C)c3C)c2c1 (stereo not shown) | -30.6%
Oc1ccc(C2C(c3ccccc3)=NN=C(c3ccccc3F)N2O)c(O)c1 (stereo not shown) | 7.99%
CC1(C(=O)NCc2ccccc2)Oc2ccccc2NC1=O (stereo not shown) | 18.8%
Cc1csc(=O)n1CC(=O)OCC(=O)N(CC(C)C)c1c(N)n(Cc2ccccc2)c(=O)[nH]c1=O | -2.59%
CNC(=O)c1snnc1-c1ccccc1 | 11.7%
O=C(N/N=C/c1ccc(OCC(=O)N2CCCCC2)cc1)c1ccccc1O | 14.9%
CCOC(=O)c1nc[nH]c1C | -1.26%
CC(=O)c1ccccn1 | 18.5%
CCc1ccccc1NC(=O)CSC1=C(C#N)C(c2ccc(O)c(OC)c2)C2=C(CCCC2=O)N1 (stereo not shown) | 15.8%
CC(NC(=O)c1ccccc1Cl)c1ccc(-n2ccnc2)cc1 (stereo not shown) | -34.2%
COc1ccccc1OCC(=O)NCCSCc1ccc(Cl)cc1 | -45%
CCOC(=O)CN1C(=O)N(c2ccccc2OC)S(=O)(=O)c2ccccc21 | 14.4%
Cc1ccc(S(=O)(=O)Nc2nc(-c3ccccc3)cs2)cc1 | 9.38%
CCOC(=O)N1CCN(S(=O)(=O)c2ccc(C(=O)N(CCN(CC)CC)c3nc4ccc(C)cc4s3)cc2)CC1.Cl | -23.8%
O=C(CN(Cc1ccco1)C(=O)c1cc(=O)[nH]c2ccccc12)Nc1ccccc1C(F)(F)F | -12%
CC(Oc1ccccc1)C(=O)Nc1nnc(S(=O)(=O)Nc2ccccc2)s1 (stereo not shown) | 11.4%
Cc1ccc(S(=O)(=O)N2CCN=C2SC(C)c2ccccc2)cc1 (stereo not shown) | 10.7%
CC1CC(C)CN(CC(=O)Nc2ccc3c(c2)OCCO3)C1.O=C(O)C(=O)O (stereo not shown) | 2.75%
O=C(CCC(=O)N1CCOc2ccccc21)NCc1cccnc1 | 12.2%
CC1Cc2ccccc2N1S(=O)(=O)c1cccc(C(=O)NCCCO)c1 (stereo not shown) | -27.9%
Cc1ccc(N(CC2=NCCN2)c2cccc(O)c2)cc1.Cl | -58.3%
COc1cc2nc(NCC3CCCO3)n3nc(-c4cccnc4)nc3c2cc1OC (stereo not shown) | -22.6%
Cl.OCCN(CCO)Cc1csc2ccccc12 | 1.95%
Cc1noc(C)c1S(=O)(=O)N(CC(=O)N1CCCC1)c1ccc(C(C)C)cc1 | -20.9%
O=C(C1COc2ccccc2O1)N1CCN(c2ccccc2Cl)CC1 (stereo not shown) | 1.69%
CCOc1ccc(C(=O)c2cc([N+](=O)[O-])ccc2N2CCOCC2)cc1 | -20.4%

SMILES | hERG current change (%, negative = inhibition) at 10uM
O=C(COC(=O)c1cc(=O)[nH]c2ccccc12)Nc1nccs1 | 16.2%
CC(=O)c1cccc(NC(=O)CN2CCN(Cc3ccccc3)CC2)c1.Cl | -10.9%
CC(C)C(=O)N(c1ccc2oc(=O)sc2c1)S(=O)(=O)c1ccccc1 | 30.6%
O=C(NC1CCS(=O)(=O)C1)c1ccc(S(=O)(=O)N2CCCCC2)cc1 (stereo not shown) | 1.86%
COc1ccc(NC(=O)c2cnn(-c3ccccc3)c2C)cc1OC | 7.69%
CC(=O)CC(C)(C)NC(C)=S | -4.75%
COC(=O)c1ccc(C(=O)NC2CCSc3ccccc32)cc1 (stereo not shown) | 14.9%
Cc1ccc(CSc2nnc3c(n2)OC2(Nc4ccccc4-3)C(=O)Nc3ccc(F)cc32)cc1 (stereo not shown) | 6.53%
CC(=O)c1ccc(NC(=O)CCNC(=O)c2ccc(Cl)cc2)cc1 | 11.5%
COc1ccc(C(=S)N2CCOCC2)cc1OC(=O)c1ccc([N+](=O)[O-])cc1[N+](=O)[O-] | -52%
CCC1CCCCN1CCCNC(=O)CN1C(=O)CSc2ccc(S(=O)(=O)N3CCC(C)CC3)cc21 (stereo not shown) | -9.76%
CC(=O)N/C(=N\c1nc(C)cc(C)n1)Nc1ccc2ccccc2c1 | 10.8%
O=C(CN1CCCc2ccccc21)Nc1ccc(F)cc1[N+](=O)[O-] | 19.2%
O=[N+]([O-])/C(C(=C(Cl)Cl)N1CCN(Cc2ccccc2)CC1)=C1\NCCN1Cc1ccc(Cl)nc1 | -12.8%
O=C1CC(c2ccco2)Cc2nc(Nc3ccc(F)cc3)ncc21 (stereo not shown) | -31%
CCOc1cc(C(=O)NC(C)COC)cc(OCC)c1OCC (stereo not shown) | -7.82%
O=c1onc(-c2cccnc2)n1-c1ccccc1F | 10.8%
COc1ccc(S(=O)(=O)NCC(c2ccc(C)cc2)N2CCN(C)CC2)cc1OC (stereo not shown) | -25.6%
CCOc1cc(CNC(=O)CN2C(=O)c3ccccc3S2(=O)=O)ccc1OC | -7.58%
COc1ccc(C(=O)Nc2cccc(C(C)=O)c2)c(OC)c1OC | 6.8%
C/C(=N\NC(=O)CC1N=C(Cc2ccccc2)NNC1=O)c1ccc(Br)cc1 (stereo not shown) | 15.1%
CN1CCN(C(=O)c2ccc(OCCOc3ccccc3)cc2)CC1 | -9.69%
C/C(=N\NC(=O)C1COc2ccccc2O1)c1ccc(C)o1 (stereo not shown) | -0.028%
Cc1cccc(C)c1OCC(=O)N/N=C/C=C/c1ccco1 | 11.7%
CC(C)NCC(=O)Nc1c2c(nc3ccccc13)CCC2.O=C(O)C(=O)O | 6.26%
Cc1onc(-c2c(F)cccc2Cl)c1C(=O)N1CCc2ccccc2C1 | -15.7%
O=C(c1ccco1)N(Cc1cccc([N+](=O)[O-])c1)c1ccc(Br)cc1 | -26.9%
